# In PubChem BioAssay (NCATS):
# Some of the results follow. The main result of the screen is listed elsewhere. These columns were measured beside it and carry no call. Compounds called inactive in the main read-out are mostly missing here. Potencies come from curve fits of mixed quality, noted in brackets.
# Assay: qHTS Assay for Lipid Storage Modulators (AID 1519)
# Conditions: Drosophila S3 cells, BODIPY lipid droplet/cell ratio, laser cytometry; measured here: lipid (BODIPY) channel AC50; cells loaded with oleic acid
# In short: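 Cells seeded at 5,000 per well were treated with compounds over a concentration series and loaded with oleic acid (400 uM, as added). Lipid droplet fluorescence (488 nm excitation, 500-530 nm channel) was read by laser-scanning cytometry and normalized to 20 uM Triacsin C.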
# Tags tell the direction and shape of the fitted curve.
row,Structure (SMILES),AC50
1,NCC1O[C@H](O[C@@H]2C(O)[C@H](O[C@H]3OC(CO)C(O)C(N)C3O)[C@@H](N)C[C@H]2N)[C@@H](N)CC1O (some centres undefined),"28.2 µM [rising, single point]"
2,COc1ccc(Oc2ncc3nc(C)c(=O)n(CCC#N)c3n2)cc1,"0.398 µM [rising, full curve, poor fit]"
3,COc1ccc(NC(=O)N2CCCC3(CCN(C(=O)c4cccn4C)CC3)C2)cc1,"0.0282 µM [rising, full curve, poor fit]"
4,CS(=O)(=O)N1CCC2(CC1)CN(c1ccc(-c3ccccc3)cc1)C2,"4.47 µM [rising, partial curve]"
5,COc1cc(S(C)=O)ccc1-c1nc2ncccc2[nH]1 (centres undefined),"15.8 µM [rising, partial curve, poor fit]"
6,Cc1nc2cnc(Oc3cccc(Cl)c3)nc2n(C2CC2)c1=O,"1.78 µM [rising, full curve, poor fit]"
7,N#CCCn1c(=O)c(-c2ccc(Cl)cc2)nc2cnc(N3CCNCC3)nc21,"5.01 µM [rising, full curve, poor fit]"
8,C[C@H]1[C@H]2CC[C@H]3C4CC=C5C[C@@H](N(C)C)CC[C@]5(C)C4CC[C@]23CN1C (some centres undefined),"35.5 µM [rising, single point]"
9,Cc1cccc(CNc2ncncc2-c2cccc(NS(C)(=O)=O)c2)c1,"10 µM [rising, partial curve, poor fit]"
10,O=C(c1cnccn1)N1CCC2(CCCN(Cc3nccs3)C2)CC1,"0.01 µM [rising, full curve]"
11,FC(F)(F)c1ccccc1-c1cncnc1-n1ccnc1,"0.316 µM [rising, full curve]"
12,COc1ccc(C(=O)N2CCC3(CCCN(C)C3)CC2)cc1,"0.158 µM [rising, full curve, poor fit]"
13,O=c1c(-c2ccc(O)cc2)coc2c(C3OC(CO)C(O)C(O)C3O)c(O)ccc12 (centres undefined),"0.126 µM [rising, full curve, poor fit]"
14,O=c1c(CCc2ccccc2)nc2cncnc2n1Cc1ccccc1Cl,"0.891 µM [rising, full curve, poor fit]"
15,COc1ccccc1-c1nc(NC2CC2)c2ccccc2n1,"0.112 µM [rising, full curve]"
16,Cn1cc(-c2nc3cnc(N4CCOCC4)nc3n(CCC#N)c2=O)c2ccccc21,"15.8 µM [rising, single point]"
17,O=C(Nc1cccc(F)c1)N1CCCC2(CCN(C(=O)c3ccco3)CC2)C1,"0.0708 µM [rising, full curve, poor fit]"
18,CCCCOc1ccc(C(=O)CCN2CCCCC2)cc1,"14.1 µM [falling, single point]"
19,COc1cc(O)c(C(=O)/C=C/c2ccc(O)c(OC)c2)c(OC)c1,"22.4 µM [rising, partial curve, poor fit]"
20,COc1ccc(NC(=O)N2CC3(CCN(C(=O)c4ccncc4)CC3)C2)cc1,"2.51 µM [rising, full curve, poor fit]"
21,CC(=O)OC1CC2C(C)(C)C(=O)CC[C@]2(C)C2CC[C@]3(C)C(=CC(=O)OC3c3ccoc3)[C@]12C (some centres undefined),"39.8 µM [rising, single point]"
22,COC(=O)N1CCC2(CC1)CCN(c1cccc(-c3ccccc3)c1)CC2,"4.47 µM [rising, partial curve, poor fit]"
23,CC(=O)OCC1=C(C(=O)O)N2C(=O)C(NC(=O)CSc3ccncc3)[C@@H]2SC1 (some centres undefined),"39.8 µM [rising, single point]"
24,COCCn1c(=O)c(-c2ccccc2)nc2cnc(Oc3ccccc3)nc21,"3.98 µM [rising, partial curve, poor fit]"
25,COCCn1c(=O)c(-c2cc(F)cc(F)c2)nc2cnc(N(C)C)nc21,"3.16 µM [rising, full curve, poor fit]"
26,c1cncc(-c2ccc3ncnc(NC4CCNCC4)c3c2)c1,"6.31 µM [rising, full curve, poor fit]"
27,N#CCCn1c(=O)c(-c2ccc(F)cc2)nc2cnc(N3CCNCC3)nc21,"25.1 µM [rising, single point]"
28,CCc1ccc(CCOc2ccc(CC3SC(=O)NC3=O)cc2)nc1 (centres undefined),"28.2 µM [rising, single point]"
29,CC(=O)OC1CCC2(C)C(=CCC3C2CCC2(C)C3C[C@@H]3O[C@]32C(C)=O)C1 (some centres undefined),"0.0355 µM [rising, full curve, poor fit]"
